In PubChem BioAssay AID624296 (National Center for Advancing Translational Sciences (NCATS), 2012):
“And” between values parts separate entries of the source, which are not always exact repeats. Equal values may be shown once. Among all 350,000 compounds or so, about 9,900 (2.8%) were called active. The shares of active, inactive and inconclusive entries below differ from those in the screen. Calls come from the whole dose curve; as a rule, active = well fitted activation curve with a large enough effect; inconclusive = small, poorly fitted or top-dose-only effect; inactive = no such curve, though single readings can be large or run the other way. No potency is given beside an inconclusive call; the fits are too rough.

Assay: A quantitative high throughput screen for small molecules that induce DNA re-replication in MCF 10a normal breast cells. For activity, positive = re-replication: % of control where 0% means no effect. Note: nearly all actives have a fitted effect of over 50% in size.
Details: MCF 10A DNA re-replication, Hoechst nuclear intensity, 48 h; activity, positive = re-replication: at 46.1 µM (top of the series)
Potency is the fitted concentration of half-maximal effect; tags give direction and shape of the fitted curve.

Row | SMILES | Potency | activity, positive = re-replication
1 | COc1cc(CN2CCCC(C)C2)ccc1OCc1ccccc1 (centres undefined) | inconclusive [activator, partial curve, poor fit] | 
2 | CCOC(=O)/C(=N/Nc1ccccc1)c1csc(Nc2ccccc2)n1 | inconclusive [activator, single point] | 
3 | Fc1ccc2cnc(-c3ccccc3F)cc2c1 | active: 18.4 µM | 
4 | O=C(CN1CCN(c2ccccc2)CC1)Nc1ccc2c(c1)CCC2 | inconclusive [activator, full curve, poor fit] | 
5 | Cc1ccc2[nH]cc(CCNC(=O)c3cccnc3)c2c1 | active: 20.6 µM | 
6 | O=[N+]([O-])c1cc(NS(=O)(=O)c2ccc(Cl)nc2)ccc1Cl | inconclusive [activator, partial curve, poor fit] | 
7 | O=C(COC(=O)c1cnccn1)c1ccc([N+](=O)[O-])cc1 | inconclusive [activator, single point] | 
8 | COc1ccccc1NC(=O)c1cnc(Nc2ccccc2OC)c2ccccc12 | inconclusive [activator, full curve, poor fit] | 
9 | Cc1cc(C[n+]2ncsc2N)c2ncccc2c1 |  | inactive: 13.7%
10 | C[C@]12c3[nH]c4cc(-c5ccco5)ccc4c3CCN1C(=O)[C@@H](CC(=O)NCC13CC4CC(CC(C4)C1)C3)C[C@@H]2C(=O)N1CCOCC1 | inconclusive [activator, single point] | 
11 | O=C(CSc1nnc(CNc2ccc(F)cc2)o1)N1CCN(C(=O)c2ccco2)CC1 |  | inactive: 2.16%
12 | COC(=O)Nc1nc2ccc(Sc3ccccc3)cc2[nH]1 | active: 904 nM and active: 1.16 µM | 
13 | CN(C)C(=O)CSc1n[nH]c(-c2ccco2)n1 | inconclusive [activator, full curve, poor fit] | 
14 | COC(=O)C1=C(\O)CCCC/C=C\1C(=O)O |  | inactive: 1.66%
15 | Cc1cc2ccccn2c1C(=S)NC(=O)c1ccccc1 |  | inactive: 14.5%
16 | CCOC(=O)c1c(C)[nH]c(C)c1S(=O)(=O)N(C)CC(=O)Nc1cc(C)ccc1OC |  | inactive: 0.22%
17 | CCN1CCN(c2cc3nc(C)n(Cc4ccccc4)c(=O)c3cc2NC(=O)c2ccccc2F)CC1 | active: 18.4 µM | 
18 | COCCn1c(=O)[nH]c2cc(C(=O)NCCN3CCN(c4ccccc4F)CC3)ccc2c1=O | inconclusive [activator, partial curve, poor fit] | 
19 | CN=C(Nc1cc(Cl)ccc1Cl)SC1CC(=O)N(c2ccc(C(=O)OC)cc2)C1=O (centres undefined) | inconclusive [activator, single point] | 
